{"source": "paper PMC12040169", "about": "(PLOS Biology, 2025)", "note": "Some of the results follow.", "data": [{"tested_on": "T1, C. trachomatis L2/434/Bu expressing GFP (CTL2-GFP)", "T1 construct": "L2/434/Bu GFP intracellular growth in HeLa cells", "parameters": "species or system HeLa; C. trachomatis total inclusion area by high-content imaging, normalised to DMSO", "details": "total inclusion area; 28.5 h, 10 µM; inhibitor", "how_it_was_run": "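Bulk GFP and resorufin signals were read first. Wells were then fixed, stained with Hoechst and imaged to detect GFP inclusions and host nuclei. MICs followed the previously described calculation.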", "values": [{"compound": "COc1ccc(F)cc1S(=O)(=O)Nc1cccc(C)n1", "note": "[CBK268842]", "% of control remaining": 98.8212}, {"compound": "O=C(c1ccccn1)N1CCCC(n2cnc3cc(F)ccc32)C1", "note": "(stereo not shown) [CBK284476]", "% of control remaining": 94.8829}, {"compound": "O=C1CCCN1CCOc1nccnc1/C=C/c1ccccc1", "note": "[CBK106875]", "% of control remaining": 94.2884}, {"compound": "CSc1oc(-c2ccccc2)nc1C(N)=O", "note": "[CBK067744]", "% of control remaining": 127.781}, {"compound": "COC(=O)c1ccc(NC(=S)N2CCC(C(N)=O)CC2)cc1", "note": "[CBK267232]", "% of control remaining": 90.3618}, {"compound": "O=C(O)c1snnc1-c1ccccc1", "note": "[CBK021545]", "% of control remaining": 113.991}, {"compound": "Cc1ccc2[nH]c3c(c2c1)CCNC31CCN(C(=O)CC(C)CC(=O)O)CC1", "note": "(stereo not shown) [CBK047196]", "% of control remaining": 91.7794}, {"compound": "Cc1cnc(COC(=O)N2C[C@@H](C)O[C@@H](C)C2)cn1", "note": "[CBK200124]", "% of control remaining": 104.181}, {"compound": "CCCCc1ccc(S(=O)(=O)Nc2nccnc2-c2cccs2)cc1", "note": "[CBK050770]", "% of control remaining": 104.361}, {"compound": "O=S(=O)(Nc1cccc2cc[nH]c12)c1ccc(Br)cc1C(F)(F)F", "note": "[CBK159519]", "% of control remaining": 58.585}, {"compound": "COc1cc(C(C)NC(=O)c2ccc(=O)[nH]n2)ccc1OC1CCCC1", "note": "(stereo not shown) [CBK298335]", "% of control remaining": 122.759}, {"compound": "CC(=O)N1CCc2cc(NC(=O)C3CC4C=CC3C43CC3)ccc21", "note": "(stereo not shown) [CBK281472]", "% of control remaining": 63.5474}, {"compound": "CCOC(=O)C(C(=O)OCC)(N1CCOCC1)N1CCOCC1", "note": "[CBK261176]", "% of control remaining": 105.965}, {"compound": "CC1CC1C(=O)N1CCC(c2nc3ccccc3cc2N)CC1", "note": "(stereo not shown) [CBK285090]", "% of control remaining": 83.9043}, {"compound": "O=C(Nc1cccc(C(F)(F)F)c1)N1CCC(n2c(=O)[nH]c3ccccc32)CC1", "note": "[CBK149845]", "% of control remaining": 79.8528}, {"compound": "COc1cc(CNC(=O)c2cncc(-c3ccc(C(=O)N4CCOCC4)cc3)c2)cc(OC)c1OC", "note": "[CBK158632]", "% of control remaining": 90.9486}, {"compound": "O=C(Oc1ccc(/C=N/c2ccc(O)c(-c3nc4ccccc4s3)c2)cc1)c1ccccc1Cl", "note": "[CBK261241]", "% of control remaining": 111.482}, {"compound": "COc1cc(/C=C(/C#N)c2ccc(C(=O)O)cc2)cc(Br)c1OCC(=O)O", "note": "[CBK268956]", "% of control remaining": 118.389}, {"compound": "Cc1cccc(/C(C#N)=C\\c2cn(CC(=O)O)c3ccccc23)c1", "note": "[CBK269457]", "% of control remaining": 66.134}, {"compound": "COc1cc(Cl)nnc1Cl", "note": "[CBK018956]", "% of control remaining": 91.3874}, {"compound": "O=C(O)c1ccc(Cl)c(S(=O)(=O)NCc2ccco2)c1", "note": "[CBK304575]", "% of control remaining": 84.1904}, {"compound": "CC(Cc1nc(-c2cnn(C)n2)cs1)n1cc(Cl)cn1", "note": "(stereo not shown) [CBK304256]", "% of control remaining": 87.8047}, {"compound": "CCOC(=O)C(CNC(=O)c1c(C)nn(C)c1C)Cc1ccccc1", "note": "(stereo not shown) [CBK305276]", "% of control remaining": 64.7386}, {"compound": "CC(=O)Nc1ccc(CNc2nnc(C3CCCCC3)o2)cc1", "note": "[CBK306427]", "% of control remaining": 49.4992}, {"compound": "Cc1cc(/C=C2\\SC(=O)N(CC(=O)Nc3ccccc3F)C2=O)c(C)n1-c1cccnc1", "note": "[CBK264770]", "% of control remaining": 96.6066}, {"compound": "CCN(CC)c1c(C)nc2ccc(C(=O)Nc3cc(-c4ccccc4)ccc3OC)cn12", "note": "[CBK145980]", "% of control remaining": 79.8965}, {"compound": "CC(=O)c1cc(C(=O)Nc2ccc(NC(=O)C(=O)O)cc2)oc1C", "note": "[CBK264011]", "% of control remaining": 123.287}, {"compound": "COc1ccc(-c2cc(C(=O)N3CCN(C(C)=O)CC3)cnc2-c2ccccc2)cn1", "note": "[CBK036637]", "% of control remaining": 143.396}, {"compound": "COc1ccc2c(c1)CCN=C2C[C@H]1CN(C(=O)NC(C)C)CC[C@H]1CC(=O)O", "note": "[CBK289156]", "% of control remaining": 85.4027}, {"compound": "Nc1nonc1-n1nnc(CN2CCCCC2)c1CN1CCCCC1", "note": "[CBK270636]", "% of control remaining": 38.0472}, {"compound": "Cc1[nH]c2ccc(F)cc2c1CC(=O)N(C)CCN(C)C", "note": "[CBK282726]", "% of control remaining": 133.564}, {"compound": "COc1ccc(-n2ncc(CN(C)C)n2)cc1OC", "note": "[CBK112862]", "% of control remaining": 83.2323}, {"compound": "O=C(O)COc1ccc(NC(=O)c2ccc3c(c2)C(=O)N(CC2CCCO2)C3=O)cc1", "note": "(stereo not shown) [CBK263719]", "% of control remaining": 99.9776}, {"compound": "CCCC(CCC)NC(=O)c1ccc(-n2nc(C(=O)OCC)c(Cl)c2C)cc1", "note": "[CBK114323]", "% of control remaining": 85.4958}, {"compound": "Cc1ccc(NCc2nc3ccccc3n2Cc2ccccc2)cc1C", "note": "[CBK263756]", "% of control remaining": 89.25}, {"compound": "CC(=O)N(C)c1ncc(Br)cc1C(=O)NCC1COc2ccccc2O1", "note": "(stereo not shown) [CBK076558]", "% of control remaining": 95.6738}, {"compound": "CC(C)CC(=O)N1CCc2c([nH]c3ccccc23)C12CCN(Cc1ccccc1)C2", "note": "(stereo not shown) [CBK059459]", "% of control remaining": 79.6818}, {"compound": "CCc1noc(C)c1C(=O)N1CCC(NC)C1", "note": "(stereo not shown) [CBK304299C]", "% of control remaining": 30.5786}, {"compound": "Cc1ccc(C(=O)Nc2cccc(OC(=O)c3cc(S(=O)(=O)N4CCCCC4)ccc3Cl)c2)cc1", "note": "[CBK261368]", "% of control remaining": 51.5012}, {"compound": "CC1CCC(N2CCN(Cc3ccccn3)CC2)CC1", "note": "(stereo not shown) [CBK263473]", "% of control remaining": 102.474}, {"compound": "Oc1ccc(Nc2ncnc3scc(-c4ccccc4)c23)cc1", "note": "[CBK269146C]", "% of control remaining": 105.457}, {"compound": "CCOC(=O)c1cnc2c(C)cc(Cl)cc2c1N1CCN(Cc2ccccc2)CC1", "note": "[CBK265975]", "% of control remaining": 72.46}, {"compound": "CC(C)(C)c1ccccc1[S+]([O-])c1cc2c(N3CCNCC3)nccc2s1", "note": "(stereo not shown) [CBK200018C]", "% of control remaining": 69.2933}, {"compound": "OCCOc1ccccc1-c1nnco1", "note": "[CBK001972]", "% of control remaining": 78.4114}, {"compound": "Cc1ccccc1CC(=O)N1CCCC1c1n[nH]cc1-c1ccncc1", "note": "(stereo not shown) [CBK283431]", "% of control remaining": 115.392}, {"compound": "COc1ccccc1C1CC(c2ccccc2)=NN1C(=O)CCC(=O)O", "note": "(stereo not shown) [CBK287088]", "% of control remaining": 95.5875}, {"compound": "O=C(Cc1ncc(C(F)(F)F)cc1Cl)NO", "note": "[CBK007437]", "% of control remaining": 65.8571}, {"compound": "O=C(O)C1CCN(Cc2ccc(Cl)cc2)CC1", "note": "[CBK286895]", "% of control remaining": 81.3085}, {"compound": "O=C(CCn1ccc2ccc(F)cc21)NC[C@H]1CC[C@H](C(=O)O)CC1", "note": "[CBK286666]", "% of control remaining": 34.9983}, {"compound": "CCCNC(=O)Cn1nc(-c2cc3c(s2)CCC3)oc1=O", "note": "[CBK284713]", "% of control remaining": 92.4506}, {"compound": "COc1ccc(CC(=O)NNC(=O)c2ccc(C(C)(C)C)cc2)cc1", "note": "[CBK261700]", "% of control remaining": 96.9357}, {"compound": "Nc1ncc(-c2ccccc2)nc1NCc1cccnc1", "note": "[CBK063452]", "% of control remaining": 72.2304}]}]}
